Assay results published in a collection of fitness landscapes (doi:10.1126/science.1257360).
The list shows a part of the results.

B1: PhoQ; a variant is named by its letters at X, in order, P23837 (parent)
chain: MKKLLRLFFPLSLRVRFLLATAAVVLVLSLAYGMVALIGYSVSFDKTTFRLLRGESNLFYTLAKWENNKLHVELPENIDKQSPTMTLIYDENGQLLWAQRDVPWLMKMIQPDWLKSNGFHEIEADVNDTSLLLSGDHSIQQQLQEVREDDDDAEMTHSVAVNVYPATSRMPKLTIVVVDTIPVELKSSYMVWSWFIYVLSANLLLVIPLLWVAAWWSLRPIEALAKEVRELEEHNRELLNPATTRELTSLVRNLNRLLKSERERYDKYRTTLTDLTHSLKTPLXXLQXXLRSLRSEKMSVSDAEPVMLEQISRISQQIGYYLHRASMRGGTLLSRELHPVAPLLDNLTSALNKVYQRKGVNISLDISPEISFVGEQNDFVEVMGNVLDNACKYCLEFVEISARQTDEHLYIVVEDDGPGIPLSKREVIFDRGQRVDTLRPGQGVGLAVAREITEQYEGKIVAGESMLGGARMEVIFGRQHSAPKDE

Variants of: B1
Assay: enrichment ratio after two sorts for PhoP signalling (ratio (wild type AVST 3.29)); higher = more functional
Conditions: with PhoP (E. coli)

| Variant | enrichment ratio |
| --- | --- |
| LIGT | ≤ 0.25 |
| DAHP | ≤ 0.25 |
| SSTM | 21.4 |
| HSKC | ≤ 0.25 |
| TQLY | 9.77 |
| YRQR | ≤ 0.25 |
| QTCF | ≤ 0.25 |
| KMHF | ≤ 0.25 |
| SSLN | 6.84 |
| GNEY | ≤ 0.25 |
| IEHW | ≤ 0.25 |
| SYNF | ≤ 0.25 |
| ITAK | ≤ 0.25 |
| HHTK | ≤ 0.25 |
| GSYY | ≤ 0.25 |
| YQIN | ≤ 0.25 |
| FDTG | ≤ 0.25 |
| EYSI | ≤ 0.25 |
| KGRH | ≤ 0.25 |
| NFAA | ≤ 0.25 |
| SIWR | ≤ 0.25 |
| GARG | ≤ 0.25 |
| WKYW | ≤ 0.25 |
| LNTT | ≤ 0.25 |

| Variant | enrichment ratio |
| --- | --- |
| YAWH | ≤ 0.25 |
| DMFM | ≤ 0.25 |
| DAWN | ≤ 0.25 |
| GCII | 18.2 |
| VITS | ≤ 0.25 |
| SEGV | 11.7 |
| FGRS | ≤ 0.25 |
| DKWP | ≤ 0.25 |
| FWSL | ≤ 0.25 |
| QEFS | 10.5 |
| SLRV | ≤ 0.25 |
| MFQK | ≤ 0.25 |
| TWPI | ≤ 0.25 |
| FQYF | ≤ 0.25 |
| PTTY | ≤ 0.25 |
| HQDM | ≤ 0.25 |
| KLWD | ≤ 0.25 |
| WNPI | ≤ 0.25 |
| MTYK | ≤ 0.25 |
| QREW | ≤ 0.25 |
| DHQD | ≤ 0.25 |
| QNYC | ≤ 0.25 |
| WTDL | ≤ 0.25 |
| YLMG | ≤ 0.25 |

| Variant | enrichment ratio |
| --- | --- |
| VLTD | ≤ 0.25 |
| HHKQ | ≤ 0.25 |
| SEFA | 1.84 |
| IHCF | ≤ 0.25 |
| SMPR | ≤ 0.25 |
| HHHD | ≤ 0.25 |
| HKLN | ≤ 0.25 |
| LLRL | ≤ 0.25 |
| NLAL | 0.332 |
| APNH | ≤ 0.25 |
| DLTG | ≤ 0.25 |
| YRWN | ≤ 0.25 |
| NTEF | ≤ 0.25 |
| FYQL | ≤ 0.25 |
| KVLY | ≤ 0.25 |
| DYFP | ≤ 0.25 |
| GGLQ | 3.13 |
| SQHR | ≤ 0.25 |
| DLPH | ≤ 0.25 |
| ALTI | 6.32 |
| GAAW | ≤ 0.25 |
| MCEG | ≤ 0.25 |
| EVLR | ≤ 0.25 |
| DKGR | ≤ 0.25 |

| Variant | enrichment ratio |
| --- | --- |
| SMVH | 7.98 |
| DYLH | ≤ 0.25 |
| LLSW | ≤ 0.25 |
| MMWP | ≤ 0.25 |
| SWTE | ≤ 0.25 |
| QRRL | ≤ 0.25 |
| FRVT | ≤ 0.25 |
| YSVH | ≤ 0.25 |
| NQRA | ≤ 0.25 |
| LSYH | ≤ 0.25 |
| CFVH | ≤ 0.25 |
| YDIV | ≤ 0.25 |
| HSGM | ≤ 0.25 |
| NQLD | ≤ 0.25 |
| FTKA | ≤ 0.25 |
| YMGI | ≤ 0.25 |
| VRFY | ≤ 0.25 |
| RDHF | ≤ 0.25 |
| EKDL | ≤ 0.25 |
| MFGP | ≤ 0.25 |
| VTGY | ≤ 0.25 |
| IRTF | ≤ 0.25 |
| EIVV | ≤ 0.25 |
| IDPK | ≤ 0.25 |

| Variant | enrichment ratio |
| --- | --- |
| KCLL | ≤ 0.25 |
| YACC | ≤ 0.25 |
| RHAY | ≤ 0.25 |
| NGGC | ≤ 0.25 |
| LEQH | ≤ 0.25 |
| RYRS | ≤ 0.25 |
| VTHV | ≤ 0.25 |
| MEFN | 7.67 |
| WRFQ | ≤ 0.25 |
| FTEK | 3.82 |
| RDMM | ≤ 0.25 |
| QHCD | ≤ 0.25 |
| LEAL | ≤ 0.25 |
| FDSC | ≤ 0.25 |
| YTCM | 11.5 |
| YPTY | ≤ 0.25 |
| LLCP | ≤ 0.25 |
| AEPG | ≤ 0.25 |
| ERRC | ≤ 0.25 |
| LHPN | ≤ 0.25 |
| HQVA | ≤ 0.25 |
| ADKS | ≤ 0.25 |
| HTHQ | ≤ 0.25 |
| SVQA | ≤ 0.25 |

| Variant | enrichment ratio |
| --- | --- |
| AMTG | 2.78 |
| MILY | 0.599 |
| FNPP | ≤ 0.25 |
| EDHV | ≤ 0.25 |
| MNSH | ≤ 0.25 |
| PEHV | ≤ 0.25 |
| EPVH | ≤ 0.25 |
| EKVE | ≤ 0.25 |
| TRAG | ≤ 0.25 |
| PEFS | ≤ 0.25 |
| SSQQ | 6.12 |
| DTGN | ≤ 0.25 |
| KFWM | ≤ 0.25 |
| YSTP | ≤ 0.25 |
| DAPQ | ≤ 0.25 |
| WISI | ≤ 0.25 |
| STTG | 7.62 |
| ARQP | ≤ 0.25 |
| PWIG | ≤ 0.25 |
| ESVA | ≤ 0.25 |
| KFCQ | ≤ 0.25 |
| HPIV | ≤ 0.25 |
| FDCY | ≤ 0.25 |
| RIYD | ≤ 0.25 |

| Variant | enrichment ratio |
| --- | --- |
| MSFM | 3.42 |
| VSMP | ≤ 0.25 |
| NEPV | ≤ 0.25 |
| KTIF | 0.425 |
| KHRH | ≤ 0.25 |
| VGLK | ≤ 0.25 |
| KILD | ≤ 0.25 |
| IHTL | ≤ 0.25 |
| ISFR | ≤ 0.25 |
| IWTY | ≤ 0.25 |
| EVPQ | ≤ 0.25 |
| PSTF | ≤ 0.25 |
| KRPQ | ≤ 0.25 |
| QDTA | ≤ 0.25 |
| GICG | 15.9 |
| WRAG | ≤ 0.25 |
| HPQC | ≤ 0.25 |
| VYTT | ≤ 0.25 |
| RIRC | ≤ 0.25 |
| LGFC | 0.715 |
| RLDC | ≤ 0.25 |
| HLCM | ≤ 0.25 |
| GYYE | ≤ 0.25 |
| TETT | 25.2 |

| Variant | enrichment ratio |
| --- | --- |
| MEES | ≤ 0.25 |
| LEIN | ≤ 0.25 |
| GDTY | ≤ 0.25 |
| KQCV | ≤ 0.25 |
| IHLT | ≤ 0.25 |
| ICHH | ≤ 0.25 |
| RYCV | ≤ 0.25 |
| QKDL | ≤ 0.25 |
| IWME | ≤ 0.25 |
| EMAH | ≤ 0.25 |
| KTPS | ≤ 0.25 |
| SVHT | ≤ 0.25 |
| SCMD | 1.02 |
| DAPW | ≤ 0.25 |
| AEVP | ≤ 0.25 |
| LTSQ | ≤ 0.25 |
| DSVA | ≤ 0.25 |
| RWYA | ≤ 0.25 |
| AGSV | 9.75 |
| TIPG | ≤ 0.25 |
| FPMC | ≤ 0.25 |
| CFRH | ≤ 0.25 |
| MNSP | ≤ 0.25 |
| RSGK | ≤ 0.25 |

| Variant | enrichment ratio |
| --- | --- |
| FICC | ≤ 0.25 |
| NIFG | ≤ 0.25 |
| ACHG | ≤ 0.25 |
| DVYV | ≤ 0.25 |
| SHIG | ≤ 0.25 |
| FCDL | ≤ 0.25 |
| EWSH | ≤ 0.25 |
| GPVD | ≤ 0.25 |
| KPRT | ≤ 0.25 |
| NHFK | ≤ 0.25 |
| AFCD | ≤ 0.25 |
| ILLF | ≤ 0.25 |
| PMIR | ≤ 0.25 |
| WLLL | ≤ 0.25 |
| RETH | ≤ 0.25 |
| LSSP | ≤ 0.25 |
| LAVK | 0.334 |
| WTNP | ≤ 0.25 |
| IQKF | ≤ 0.25 |
| RPPD | ≤ 0.25 |
| FTQW | ≤ 0.25 |
| LWCF | ≤ 0.25 |
| KKYV | ≤ 0.25 |
| VLTF | ≤ 0.25 |

| Variant | enrichment ratio |
| --- | --- |
| PGAR | 3.76 |
| WKTY | ≤ 0.25 |
| LHYK | ≤ 0.25 |
| TAHH | 8.19 |
| EDYC | ≤ 0.25 |
| MRFY | ≤ 0.25 |
| ICML | 6.1 |
| LIYQ | ≤ 0.25 |
| IDYV | ≤ 0.25 |
| TGEH | ≤ 0.25 |
| SAFF | ≤ 0.25 |
| QYWE | ≤ 0.25 |
| DPRF | ≤ 0.25 |
| WHNH | ≤ 0.25 |
| HTDP | ≤ 0.25 |
| DMLV | ≤ 0.25 |
| TQPP | ≤ 0.25 |
| MGPT | ≤ 0.25 |
| PYYT | ≤ 0.25 |
| QLPS | ≤ 0.25 |
| AIGS | ≤ 0.25 |
| EVMY | ≤ 0.25 |
| NFPH | ≤ 0.25 |
| GQDV | ≤ 0.25 |

| Variant | enrichment ratio |
| --- | --- |
| HGHS | ≤ 0.25 |
| VEEN | ≤ 0.25 |
| WDEI | ≤ 0.25 |
| RFFT | ≤ 0.25 |
| WMWI | ≤ 0.25 |
| SIKI | ≤ 0.25 |
| PVRD | ≤ 0.25 |
| PDLG | ≤ 0.25 |
| WWII | ≤ 0.25 |
| AEYI | 3.12 |
| GQAR | ≤ 0.25 |
| PLYD | ≤ 0.25 |
| DVVN | ≤ 0.25 |
| FCEP | ≤ 0.25 |
| QVAL | 0.584 |
| VLRP | ≤ 0.25 |
| KDIW | ≤ 0.25 |
| SFEC | ≤ 0.25 |
| WCSK | ≤ 0.25 |
| AYPC | ≤ 0.25 |
| SFCN | 0.422 |
| ENTI | ≤ 0.25 |
| TKEI | ≤ 0.25 |
| KPQD | ≤ 0.25 |

| Variant | enrichment ratio |
| --- | --- |
| ERYM | ≤ 0.25 |
| SYLC | 0.631 |
| SANV | ≤ 0.25 |
| SFGC | ≤ 0.25 |
| YVDS | ≤ 0.25 |
| NLPE | ≤ 0.25 |
| AKDH | ≤ 0.25 |
| MGCG | ≤ 0.25 |
| IAPD | ≤ 0.25 |
| FFHV | ≤ 0.25 |
| SKWG | ≤ 0.25 |
| IGLV | 6.7 |
| KSYS | ≤ 0.25 |
| EDPP | ≤ 0.25 |
| MRVI | ≤ 0.25 |
| QRSH | ≤ 0.25 |
| RGID | ≤ 0.25 |
| GRWR | ≤ 0.25 |
| YMKA | ≤ 0.25 |
| GGIA | 2.14 |
| MCQP | ≤ 0.25 |
| FYPM | ≤ 0.25 |
| VYMW | ≤ 0.25 |
| ALPR | ≤ 0.25 |

| Variant | enrichment ratio |
| --- | --- |
| MRIH | ≤ 0.25 |
| AIRV | ≤ 0.25 |
| KFVM | ≤ 0.25 |
| GRNT | ≤ 0.25 |
| APSL | 0.536 |
| HWFW | ≤ 0.25 |
| RWCT | ≤ 0.25 |
| NRQD | ≤ 0.25 |
| VMCT | ≤ 0.25 |
| HPQP | ≤ 0.25 |
| TKKK | ≤ 0.25 |
| DNIW | ≤ 0.25 |
| DCAC | ≤ 0.25 |
| LKCH | ≤ 0.25 |
| DCHT | ≤ 0.25 |
| STRE | ≤ 0.25 |
| KVIM | ≤ 0.25 |
| FCTE | ≤ 0.25 |
